Among the data in the supplement of paper PMC4723716 are viability index values, retold here.

± gives the uncertainty stated by the source. Over roughly 9,900 compounds, “viability index relative to DMSO control” has its median near 1; the lowest 2% begin near 0.85. The list shows a part of the results.

This test has as its system Plasmodium falciparum NF54 stage V gametocytes. Kind of test: viability index relative to DMSO control (fraction); higher = less gametocyte killing. To be noted: 2.5 µM, incubation time: 72 h. Summed up: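 Compound at 2.5 µM was incubated for 72 hr at 37°C under low oxygen with P. falciparum NF54 stage V gametocytes (0.75% gametocytemia, 1.25% hematocrit, 10 µl, serum-free screening medium) in 1,536-well plates. Staining used 3 µl of 2.5 µM MitoTracker Red CMXRos plus 0.13% saponin for one to two hours, and red particles of 20–70 µm2 were counted in one imaged field per well. Each viability index is that count relative to the plate mean of solvent-only wells.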

Setting [1] is: library set: Broad Institute DOS.

`C[C@H](CO)N1C[C@H](C)[C@@H](CN(C)Cc2ccc3c(c2)OCO3)Oc2cc(Br)ccc2S1(=O)=O` gave a viability index under setting [1] of 0.942 ± 0.033.

For the molecule `COc1ccc(NC(=O)N(C)C[C@H]2OCc3ccccc3-c3ccccc3C(=O)N([C@H](C)CO)C[C@H]2C)c(OC)c1`, the viability index under setting [1] is 1.06 ± 0.018.

As to `N#C[C@@H]1[C@H](c2ccccc2-c2ccccc2F)[C@H](CO)N1C(=O)c1cccc(F)c1`, the viability index under setting [1] came to 1.11 ± 0.11. Under setting [1], `CNC[C@H]1OCc2ccccc2-c2ccccc2C(=O)N([C@H](C)CO)C[C@H]1C` displayed a viability index of 0.97206 ± 7.4e-05. Same read-out and setting: with `C[C@@H](NC(=O)C[C@H]1CC[C@H]2[C@@H](COc3ccc(NC(=O)C4CCOCC4)cc3C(=O)N2C)O1)c1ccccc1` the figure was 1.18 ± 0.017; with `COc1ccc2c3c([nH]c2c1)[C@@H](CO)NC[C@]31CN(C1)C(=O)Nc1ccc2OCOc2c1`, 1.03 ± 0.088. Under setting [1], `COc1cccc(S(=O)(=O)Nc2ccc3c(c2)C(=O)N(C)C[C@@H](OC)[C@H](C)CN(Cc2ccccc2F)[C@@H](C)CO3)c1` returned a viability index of 0.994 ± 0.043. Under setting [1], `O=C(NCC[C@H]1CC[C@@H](NC(=O)c2ccncc2)[C@@H](CO)O1)Nc1ccc(Cl)cc1` showed a viability index of 1.086 ± 0.0063. On the same count and under the same terms, with `O=C1CCC(=O)N[C@@H](c2ccc3c(c2)OCO3)C/C=C\CCN1` the figure was 0.996 ± 0.021. Same read-out and setting: with `O=C(C[C@@H]1CC[C@@H]2[C@H](COC[C@@H](O)CN2Cc2cc(F)cc(F)c2)O1)Nc1nccs1` the figure was 1.05 ± 0.071; with `COc1ccc(-c2ccc([C@H]3[C@H]4CNC[C@@H]3N4Cc3cncnc3)cc2)cc1`, 0.996 ± 0.058.

In turn, `C[C@@H]1CN([C@@H](C)CO)C(=O)c2cccc(NC(=O)Nc3ccccc3)c2O[C@@H]1CN(C)C(=O)Nc1ccccc1` came in with a viability index (library set: Broad Institute Blood Stage) of 0.703 ± 0.052. Molecule `COC(=O)[C@H]1[C@H](CO)[C@H]2Cn3c(ccc(-c4ccccc4OC)c3=O)[C@H]2N1C(=O)c1cnccn1` yielded a viability index under setting [1] of 1.02 ± 0.027.

For `COc1ccc2c3c([C@H](CO)N(C[C@]33CN(C3)C(=O)Cc3ccncc3)C(=O)Nc3ccc(F)cc3)n(C)c2c1`, the viability index under setting [1] turned out to be 1.09 ± 0.05. On the same count and under the same terms, with `CCS(=O)(=O)NCC[C@@H]1CC[C@H](NS(=O)(=O)c2ccccc2C)[C@H](CO)O1` the figure was 1.1 ± 0.064; with `CCCNC(=O)N(C)C[C@@H]1Oc2cc(C#C[C@@H](C)O)ccc2S(=O)(=O)N([C@H](C)CO)C[C@H]1C`, 1.08 ± 0.02. On to `O=C(C[C@@H]1C[C@H]2c3cc(NC(=O)Nc4ccccc4F)ccc3O[C@H]2[C@@H](CO)O1)NCc1ccccn1`, for which, under setting [1], the viability index came to 0.992 ± 0.045. Under setting [1], `CO[C@@H]1CN(C)C(=O)c2cc(NS(=O)(=O)c3cn(C)cn3)ccc2OC[C@@H](C)NC[C@@H]1C` returned a viability index of 1.023 ± 0.0092. Molecule `Cc1ccc(S(=O)(=O)Nc2ccc3c(c2)CC(=O)N([C@@H](C)CO)C[C@@H](C)[C@@H](CN(C)S(=O)(=O)c2ccccc2)O3)cc1` displayed a viability index under setting [1] of 0.9192 ± 0.0059. In the case of `CC(C)NC(=O)N(C)C[C@@H]1Oc2c(NS(=O)(=O)c3cccs3)cccc2C(=O)N([C@@H](C)CO)C[C@H]1C`, the viability index under setting [1] was 1.01 ± 0.083. The same measure, in the same setting: with `COc1ccc2c(c1)n(C)c1[C@H](CO)N(C[C@]3(CCN(C)CC3)c21)C(=O)c1ccc(F)cc1` the figure was 1.05 ± 0.018; with `C[C@@H]1CCCCO[C@@H](CN(C)S(=O)(=O)c2ccc(Cl)cc2)[C@H](C)CN([C@H](C)CO)C(=O)c2cc(NC(=O)Nc3ccc(C(F)(F)F)cc3)ccc2O1`, 1.0688 ± 0.0004; with `CC(=O)N1CC[C@@H]2[C@H](CO)Nc3ccc(-c4ccccc4)cc3[C@@H]21`, 1.09 ± 0.09. In turn, `COc1cccc(CNC(=O)C[C@@H]2CC[C@@H]3[C@@H](COc4ccc(NC(=O)c5cccs5)cc4C(=O)N3C)O2)c1` came in with a viability index under setting [1] of 1.07 ± 0.012. `CO[C@@H]1CN(C)C(=O)c2cc(NC(C)=O)ccc2OC[C@H](C)N(Cc2ccncc2)C[C@H]1C`: the viability index under setting [1] stood at 1.05 ± 0.03. In the case of `O=C(Nc1ccc(F)cc1)N1CC(=O)N2[C@H](CO)[C@H](c3ccc(C4=CCCC4)cc3)[C@H]2C1`, the viability index under setting [1] worked out at 1.05 ± 0.043. For the molecule `COc1ccccc1-c1ccc([C@H]2[C@H](CO)N3CCCCN(C(=O)c4cccnc4)C[C@@H]23)cc1`, the viability index under setting [1] is 1.08 ± 0.037. In the case of `C[C@@H]1CCCCO[C@H](CN(C)C(=O)CCCN(C)C)[C@@H](C)CN([C@H](C)CO)C(=O)c2cc(NS(=O)(=O)c3ccc(Cl)cc3)ccc2O1`, the viability index under setting [1] was found to be 1.07 ± 0.084. On the same count and under the same terms, in the case of `COc1cccc(C(=O)Nc2ccc3c(c2)C(=O)N(C)[C@H]2CC[C@H](CC(=O)N[C@@H](C)c4ccccc4)O[C@H]2CO3)c1` it was 1.14 ± 0.14; in that of `O=C(C[C@H]1CC[C@H]2[C@@H](COC[C@@H](O)CN2C(=O)c2ccncc2)O1)NCc1cc(F)cc(F)c1`, 0.988 ± 0.027; in that of `Cc1ccc(S(=O)(=O)Nc2cccc3c2O[C@@H](CN(C)C(=O)Nc2ccc(C(F)(F)F)cc2)[C@@H](C)CN([C@H](C)CO)C3=O)cc1`, 1.08 ± 0.061. Under setting [1], `CO[C@@H]1CN(C)C(=O)c2ccc(NS(=O)(=O)c3c(C)noc3C)cc2OC[C@H](C)NC[C@@H]1C` registered a viability index of 1.11 ± 0.049. As for `CC(=O)N(CC1CCC1)C[C@@H]1N[C@@H](CO)[C@H]1c1ccc(C2=CCCC2)cc1`, under setting [1], the viability index stood at 1.04 ± 0.024. On to `O=C(C[C@H]1CC[C@H]2[C@@H](COC[C@@H](O)CN2C(=O)Nc2ccc(Cl)cc2)O1)NCC1CCCCC1`, for which, under setting [1], the viability index was 1.02 ± 0.061. The molecule `O=C(C1CCOCC1)N1CC(=O)N2[C@@H](CO)[C@@H](c3ccc(C#CC4CCCCC4)cc3)[C@@H]2C1` had a viability index under setting [1] of 1.05 ± 0.042.
